83 variants from the RNAGym collection of RNA variant scans (doi:10.7554/elife.90254) can be followed below.

The source gives no read counts; variants with many changes may rest on few reads.

The labels stand for the following.
B1: OR4K15 (parent)
chain: GUUAACGGUCAUAGGCCAUGGAAACUAGGAGCACCAUUUCGCUGCCAGUGAAGAAAUGAACAAAGAAAAUCUGGGCCAGGCAGGCAUCAAAAGAAAUAGUCUUGCGCUCAACCAGAAAGUCUGUAAUCAUUUUAAGGGUA

In this series the parent is B1. The series is described as follows: self-cleavage, relative activity (ratio to wild type); higher = more cleavage; in vitro, sequencing; the parent is a self-cleaving ribozyme.
Take U2C A98G U100C: the self-cleavage came to 1.53.
In the case of U2C A23G A52G C105U it was 0.07; in that of G1U U49C A64G G83U A126U, 0.44.
In the case of U2C U9C A63U A110G, the self-cleavage turned out to be 0.23.
Consider U2C U39C A52G, for which the self-cleavage amounted to 0.55.
In the case of U2C A11G A66G it was 0.97.
Next, U2A A23G G53U A126G: 0.79; U2C A33U A47G U139C: 0.66.
On to U2C A36G A55G A56G A90G A96G, for which the self-cleavage is 1.23.
In the case of U3A U70C A89G A96U U102C it was 0.56.
Regarding U2C A30G A89G A92G, the self-cleavage came to 0.6.
Next, U2C A5G A135G: 0.69; U2C G29A A95G U97C A98G: 0.8.
Next, U2A U49A A64G A68G A69G: 1.11.
Next, U2A G7A C10U A56G A125G U132C: 0.49.
As for U2C A18U A69U U131C, the self-cleavage is 0.86.
In the case of U2A A78U A82G it was 0.23; in that of U2C U9A U38A A125G, 0.49.
In the case of U2C A67U A95G U102A U130C it was 1.5; in that of G1A A11G A36G A47G U57C U70A U103C, 0.58.
Regarding U2C U102C A118G, the self-cleavage stood at 1.14.
In the case of U2A A33U A111G it was 0.05; in that of U3A U72C U124C, 0.09.
For U2C A22U A69G U72A U131C, the self-cleavage amounted to 0.04.
For U2C U9C A33C U87A, the self-cleavage is 1.48.
In the case of U2A U87C A111G, the self-cleavage came to 0.06.
Turning to U2C A36G A51G, the self-cleavage stood at 1.21.
As for U2C U43A A47U A67G, the self-cleavage is 1.1.
Next, U2A A23G A27G: 1.11.
Next, G1A A91G U102A U108C U120C A126G: 0; U2C A5G A24G A118G U122C: 0.22; U2C A4G U12A A82G: 1.24.
Next, U2A U70C A94U U108C A134U: 0.02; U2C U9C A13G: 0.92; U2C A67G A95G: 1.29.
Consider U3A A63G A78G U132C, for which the self-cleavage is 0.26.
In the case of U2C A24G A30G A55G A67G it was 0.37; in that of U2A A13U U57C, 1.14; in that of U2C A36G A47U A125G U130C, 0.16.
Next, U2C A68U A96G: 1; U2C A18G U70C U131A U132C: 0.14; U2A A51U A67G: 1.27.
In the case of U2C C32A A82G A116G it was 0.54; in that of U2A U26C A96G, 0.69; in that of U2C A91G G99A, 0.17.
Consider U2A A96C U108C, for which the self-cleavage was 0.02.
As for U2C A13G A95G, the self-cleavage came to 0.72.
As to U2A A23G A140G, the self-cleavage worked out at 0.87.
In the case of U2C G14U A51G A91G A110U U120C C121U A125G it was 0.32; in that of U3A A69U U97C A98U, 0.35.
Next, U2C A95G A126U U130C: 0.59.
Next, U2C U43C A56G A116U: 0.18; U3A U43C A59G U108C C121A U124A: 0; U2A U26C U43C U87C A117G: 1.88.
As to U2C A11G A33G U39C A60G A62G U72C, the self-cleavage is 0.17.
Next, U2C A4G U26A A110G: 0.06; U2C A11U C16G: 0.7; U2C A55G A63U A98G A114U: 0.
As to U2C A22G G138A, the self-cleavage was 0.65.
In the case of U2G A13G A33G it was 0.7.
Next, U2C U103C A135U: 1.07; U2C U49A A78U A96G A116G A126U: 0.11.
Next, U2C A66U A67G U102C A126G: 1.31.
For G1A A47G U130C, the self-cleavage is 0.59.
With U2G U38G A54G A56G, the self-cleavage came to 0.66.
Next, U2C A5G U130C: 0.9; U2C A18U A22G U124C: 0.59; U2A A18U A55G: 1.26.
In the case of U2A A86U U108C it was 0.01.
Take U2C A24G U38C: the self-cleavage worked out at 1.05.
In the case of U2C U38C A56G it was 1.2.
Next, U2A A5U A82C: 0.43; U3A A59C A91U U133C: 1.2.
Consider U2A A18G A51G U103C A110G A116G U120C, for which the self-cleavage stood at 0.02.
In the case of U2A A117G U132C it was 1.78; in that of U2A A22G A92G A135G A140G, 0.76.
In the case of U2C C61U A89G U108C it was 0.11.
Take U2C A27U U43C A111G: the self-cleavage came out at 0.
Next, U2A A68U A94G: 1.18; G1A U37G U49A A78U: 0.59; U2A A33G A118G A125G: 0.1.
In the case of U2A A94G U102A U103C U108C it was 0.05; in that of U2C U102C U131C A135G, 0.84.
